# Laboratory results from the supplement of paper PMC4604168 (melanoma cell lines).
# This is one part of the list. Many values rest on one well or one pass, so single values are uncertain.
# Experiments:
# Assay in all cases: cell count relative to DMSO control; melanoma cells; higher = more viable cells
# Settings in all cases: library dose: standard library concentration; 72 h
# SkMel28 = tested on: SkMel28
# SkMel2 = tested on: SkMel2
# SkMel30 = tested on: SkMel30
# SkMel5 = tested on: SkMel5
# UACC257 = tested on: UACC257
# UACC62 = tested on: UACC62
# WM115 = tested on: WM115
# WM1716 = tested on: WM1716
# WM1745 = tested on: WM1745
# WM3526 = tested on: WM3526
# 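Further: cells treated in 1,536-well plates, then fixed and DAPI-stained, with nuclei counted from automated high-throughput microscope images.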
SMILES,cell count (SkMel28) [%],cell count (SkMel2) [%],cell count (SkMel30) [%],cell count (SkMel5) [%],cell count (UACC257) [%],cell count (UACC62) [%],cell count (WM115) [%],cell count (WM1716) [%],cell count (WM1745) [%],cell count (WM3526) [%]
"Cn1cc(C2=C(c3cn(C4CCN(Cc5ccccn5)CC4)c4ccccc34)C(=O)NC2=O)c2ccccc21 [Enzastaurin] + CS(=O)(=O)CCNCc1ccc(-c2ccc3ncnc(Nc4ccc(OCc5cccc(F)c5)c(Cl)c4)c3c2)o1 [lapatinib] (first compound 4 µM, partner dose 4 µM)",50.3,55.6,90.3,64.7,81.3,42.7,74.8,67.9,33.7,74.8
"C[As](C)SC[C@H](NC(=O)CC[C@H](N)C(=O)O)C(=O)NCC(=O)O [Darinaparsin] + NC(=O)Nc1cc(-c2cccc(F)c2)sc1C(=O)N[C@H]1CCCNC1 [AZD7762] (first compound 2 µM, partner dose 0.1 µM)",33.3,81.7,84.6,62.7,84.8,69.5,65.9,45.1,61.8,53.4
"C[As](C)SC[C@H](NC(=O)CC[C@H](N)C(=O)O)C(=O)NCC(=O)O [Darinaparsin] + Oc1cc(-c2nc(-c3ccccc3)[nH]c2-c2ccncc2)ccc1Cl [L779450] (first compound 2 µM, partner dose 1 µM)",29.6,32.3,92.8,59.7,92.6,51.3,55.8,57.9,64.9,43.9
"C[C@]12O[C@H](C[C@]1(O)CO)n1c3ccccc3c3c4c(c5c6ccccc6n2c5c31)CNC4=O [Lestaurtinib] + CNC(=O)c1cc(Oc2ccc(NC(=O)Nc3ccc(Cl)c(C(F)(F)F)c3)cc2)ccn1 [sorafenib] (first compound 0.02 µM, partner dose 2 µM)",118,79.5,66.8,69.6,80.5,75.9,97.8,115,58.3,69.8
"Cn1cc(C2=C(c3cn(C4CCN(Cc5ccccn5)CC4)c4ccccc34)C(=O)NC2=O)c2ccccc21 [Enzastaurin] + Cn1c(=O)n(-c2ccc(C(C)(C)C#N)cc2)c2c3cc(-c4cnc5ccccc5c4)ccc3ncc21 [NVP-BEZ235] (first compound 4 µM, partner dose 0.02 µM)",59.9,76.9,75.2,74.4,114,77.8,82.4,101,97.9,108
"N.N.[Cl][Pt][Cl] [cisplatin] + Nc1nc(F)nc2c1ncn2[C@@H]1O[C@H](CO)[C@@H](O)[C@@H]1O [fludarabine] (first compound 8 µM, partner dose 1 µM)",2.07,0.913,10.2,24.6,27.7,54.5,89.6,91.6,106,15.9
"Cn1cc(C2=C(c3cn(C4CCN(Cc5ccccn5)CC4)c4ccccc34)C(=O)NC2=O)c2ccccc21 [Enzastaurin] + O=C(O)c1ccc(-c2c[nH]c3ncc(-c4ccccc4)cc23)cc1C1CCCC1 [GSK650394] (first compound 4 µM, partner dose 0.8 µM)",105,86.3,90.1,68.4,77.5,81.7,97.4,67.2,73.4,97.1
"Cn1cc(C2=C(c3cn(C4CCN(Cc5ccccn5)CC4)c4ccccc34)C(=O)NC2=O)c2ccccc21 [Enzastaurin] + C[C@]1(O)C[C@@H](c2nc(-c3ccc4ccc(-c5ccccc5)nc4c3)c3c(N)nccn32)C1 [OSI906] (first compound 4 µM, partner dose 2 µM)",66.9,69,96,66,74.7,93.7,118,86.9,46.6,95.6
"Cn1cc(C2=C(c3cn(C4CCN(Cc5ccccn5)CC4)c4ccccc34)C(=O)NC2=O)c2ccccc21 [Enzastaurin] + Nc1ccn([C@@H]2O[C@H](CO)[C@@H](O)C2(F)F)c(=O)n1 [gemcitabine] (first compound 4 µM, partner dose 0.002 µM)",93.9,113,107,112,91,70.8,112,70.2,58.3,120
"C[C@]12O[C@H](C[C@]1(O)CO)n1c3ccccc3c3c4c(c5c6ccccc6n2c5c31)CNC4=O [Lestaurtinib] + CC(C)(C)c1cnc(CSc2cnc(NC(=O)C3CCNCC3)s2)o1 [SNS-032] (first compound 0.02 µM, partner dose 0.05 µM)",57.5,0.38,88.1,46.8,87.4,68.9,77.1,81.6,63.3,67.9
"N.N.[Cl][Pt][Cl] [cisplatin] + Cn1cncc1[C@@](N)(c1ccc(Cl)cc1)c1ccc2c(c1)c(-c1cccc(Cl)c1)cc(=O)n2C [tipifarnib] (first compound 8 µM, partner dose 0.05 µM)",85.8,75.5,110,77.1,68.5,80.9,66,74,84.5,98.9
"N.N.[Cl][Pt][Cl] [cisplatin] + COc1cc2c(Oc3ccc4[nH]c(C)cc4c3F)ncnc2cc1OCCCN1CCCC1 [cediranib] (first compound 8 µM, partner dose 2 µM)",74.9,76.3,82.9,117,111,76.2,76.1,97.5,97.2,92.3
"C[C@]12O[C@H](C[C@]1(O)CO)n1c3ccccc3c3c4c(c5c6ccccc6n2c5c31)CNC4=O [Lestaurtinib] + CC(C)C[C@H](NC(=O)[C@H](Cc1ccccc1)NC(=O)c1cnccn1)B(O)O [Bortezomib] (first compound 0.02 µM, partner dose 0.005 µM)",31.3,46.1,33.5,33.3,77.7,56,29.8,21.2,25,27.1
"N.N.[Cl][Pt][Cl] [cisplatin] + O=C(O)[C@@H]1[O][Sb](=[O])([O][Sb]2(=[O])[O][C@H]([C@H](O)CO)[C@H](O)[C@H](C(=O)O)[O]2)[O][C@H]([C@H](O)CO)[C@@H]1O [stibogluconate] (first compound 8 µM, partner dose 10 µM)",101,109,83.2,104,80.8,78,110,66.8,80.6,86.8
"C[As](C)SC[C@H](NC(=O)CC[C@H](N)C(=O)O)C(=O)NCC(=O)O [Darinaparsin] + COc1cc2c(Oc3ccc4[nH]c(C)cc4c3F)ncnc2cc1OCCCN1CCCC1 [cediranib] (first compound 2 µM, partner dose 2 µM)",173,109,105,74,74.3,135,102,84.9,91.2,81.2
"C[C@]12O[C@H](C[C@]1(O)CO)n1c3ccccc3c3c4c(c5c6ccccc6n2c5c31)CNC4=O [Lestaurtinib] + CS(=O)(=O)c1ccc(C(=O)Nc2ccc(Cl)c(-c3ccccn3)c2)c(Cl)c1 [vismodegib] (first compound 0.02 µM, partner dose 5 µM)",95.7,119,85.8,68.1,89,76,79.2,95.5,97.2,71.3
"Cn1cc(C2=C(c3cn(C4CCN(Cc5ccccn5)CC4)c4ccccc34)C(=O)NC2=O)c2ccccc21 [Enzastaurin] + Cn1nnc2c(C(N)=O)ncn2c1=O [temozolomide] (first compound 4 µM, partner dose 10 µM)",37.2,65.4,60.8,87.9,100,55.9,97.1,55.6,42.4,77.5
"Cn1cc(C2=C(c3cn(C4CCN(Cc5ccccn5)CC4)c4ccccc34)C(=O)NC2=O)c2ccccc21 [Enzastaurin] + Cn1cncc1[C@@](N)(c1ccc(Cl)cc1)c1ccc2c(c1)c(-c1cccc(Cl)c1)cc(=O)n2C [tipifarnib] (first compound 4 µM, partner dose 0.05 µM)",78.4,64.4,96.5,88.4,102,70.5,72.8,71.9,75.4,81.9
"Cn1cc(C2=C(c3cn(C4CCN(Cc5ccccn5)CC4)c4ccccc34)C(=O)NC2=O)c2ccccc21 [Enzastaurin] + OCCn1cc(-c2cnc3nnn(Cc4ccc5ncccc5c4)c3n2)cn1 [PF04217903] (first compound 4 µM, partner dose 5 µM)",140,72.4,124,88.7,98.5,75.7,139,83.3,58.6,86
"Cn1cc(C2=C(c3cn(C4CCN(Cc5ccccn5)CC4)c4ccccc34)C(=O)NC2=O)c2ccccc21 [Enzastaurin] + C=CCNC1=C2C[C@@H](C)C[C@H](OC)[C@H](O)[C@@H](C)/C=C(\C)[C@H](OC(N)=O)[C@@H](OC)/C=C\C=C(/C)C(=O)NC(=CC1=O)C2=O [Tanespimycin] (first compound 4 µM, partner dose 0.01 µM)",53.3,51.2,88.7,75.1,104,50.3,21.3,82,21.1,73.4
"C[As](C)SC[C@H](NC(=O)CC[C@H](N)C(=O)O)C(=O)NCC(=O)O [Darinaparsin] + O=C(Nc1cccc(Cl)c1)Nc1ncc(CCNc2ncnc3ccsc23)s1 [SNS314] (first compound 2 µM, partner dose 0.004 µM)",46.1,59.5,90.6,58.1,59.4,88.3,42.1,48.7,76.9,58.8
